This is an account of results in PMC13083723 (Patterns, 2026).

Among all 5,400 compounds or so, about 190 (3.5%) showed an effect of 50% or more. The list shows a part of the results.

This experiment relates to Vero-E6. In words: primary screen, phospholipidosis by LipidTOX staining; higher = more effect of the substance. As to conditions: 10 µM. The essentials:
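Single-concentration screen at 10 μM, with DMSO 0.1 v/v % and amiodarone 10 μM as controls. Read-out is LipidTOX Red phospholipid staining, which tolerates aldehyde fixation, in Vero-E6 cells.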
For `Cc1ccc(C23CNCC2C3)cc1` (centres unmarked), the result_ITMP is listed as 0.98%.

For `O=c1[nH]c(=O)n([C@H]2C[C@H](O)[C@@H](CO)O2)cc1C(F)(F)F`, the result_ITMP stood at 0.71%.

Turning to `c1cc(CN2CCCNCCNCCCNCC2)ccc1CN1CCCNCCNCCCNCC1`, the result_ITMP is -2.03%.

As for `CN[C@H](CC(C)C)C(=O)N[C@H]1C(=O)N[C@@H](CC(N)=O)C(=O)N[C@H]2C(=O)N[C@H]3C(=O)N[C@H](C(=O)N[C@H](C(=O)O)c4cc(O)cc(O)c4-c4cc3ccc4O)[C@H](O[C@H]3C[C@](C)(N)[C@@H](O)[C@H](C)O3)c3ccc(c(Cl)c3)Oc3cc2cc(c3O[C@@H]2O[C@H](CO)[C@@H](O)[C@H](O)[C@H]2O[C@H]2C[C@](C)(NCc3ccc(-c4ccc(Cl)cc4)cc3)[C@@H](O)[C@H](C)O2)Oc2ccc(cc2Cl)[C@H]1O`, the result_ITMP is listed as 0.08%.

Consider `CC(=O)O[C@@H]1CC[C@@]2(C)[C@@H](CC[C@]3(C)[C@@H]2C(=O)C=C2[C@@H]4[C@@H](C)[C@H](C)CC[C@]4(C)CC[C@]23C)[C@@]1(C)C(=O)O`, for which the result_ITMP is reported as -0.39%.

Consider `CC(C)NC(=N)NC(=N)Nc1ccc(Cl)cc1`, for which the result_ITMP is on record as -3.81%.

As to `CC(C)n1cnc2c(NCCc3ccc(O)cc3)nc(-c3csc4ccccc34)nc21`, the result_ITMP came out at 4.27%.

Consider `O=C(NNc1ccccc1)c1ccncc1`, for which the result_ITMP is -2.28%.

As for `CCCCC/C=C\C=C/CCCCCCCCC(=O)O`, the result_ITMP was -3.09%.

Turning to `COc1ccc2nc(S(=O)Cc3ncc(C)c(OC)c3C)[nH]c2c1` (centres unmarked), the result_ITMP was 1.1%.

On to `Cc1nc2c(O)cccc2c(=O)[nH]1`, for which the result_ITMP was -1.87%.

On to `CC1CCc2cc(F)cc3c(=O)c(C(=O)O)cn1c23` (centres unmarked), for which the result_ITMP is -2.22%.

For `O=C(NCC1CCCCN1)c1cc(OCC(F)(F)F)ccc1OCC(F)(F)F` (centres unmarked), the result_ITMP is listed as -0.31%.

Turning to `C[C@@H]([C@H](O)c1ccc(O)cc1)N1CCC(Cc2ccccc2)CC1.C[C@H]([C@@H](O)c1ccc(O)cc1)N1CCC(Cc2ccccc2)CC1`, the result_ITMP was 8.99%.

On to `COc1cc(N2CCC(N3CCN(C)CC3)CC2)ccc1Nc1ncc(Cl)c(Nc2ccccc2S(=O)(=O)C(C)C)n1`, for which the result_ITMP is on record as -2.93%.

For `N[C@@H](Cc1ccc(I)cc1)C(=O)O`, the result_ITMP was -0.07%.

`CN1CCN(C(=O)CN[C@@H]2C[C@H]2c2ccc(OCc3ccccc3)cc2)CC1`: the result_ITMP was found to be 87.7%.

Turning to `CC1(C)S[C@@H]2[C@H](/N=C/N3CCCCCC3)C(=O)N2[C@H]1C(=O)O`, the result_ITMP is given as 2.81%.

With `CCCOc1ccc2nc(NC(=O)OC)[nH]c2c1`, the result_ITMP is listed as -2.44%.

In the case of `CCCC[C@H](C)C[C@H](O)/C=C/[C@H]1[C@H](O)CC(=O)[C@@H]1CCCC/C=C/C(=O)O`, the result_ITMP is -0.28%.

As for `CNCCc1c[nH]cn1`, the result_ITMP was -7.65%.

Take `CCCCOc1ccc(OCCCN2CCOCC2)cc1`: the result_ITMP amounted to 2.18%.

Take `Nc1cccc(-c2cc3c(Oc4cccc(O)c4)ncnc3[nH]2)c1`: the result_ITMP came to 0.14%.

In the case of `CC(C)[C@H]1CC[C@H](C(=O)N[C@H](Cc2ccccc2)C(=O)O)CC1`, the result_ITMP is -9.88%.

With `CC(=O)Oc1cccc(C(=O)O)c1OC(C)=O`, the result_ITMP is on record as -9.93%.

Take `COc1c(O)cc2c(c1O)[C@@H]1O[C@H](CO)[C@@H](O)[C@H](O)[C@H]1OC2=O`: the result_ITMP is reported as -0.33%.

As for `COc1ccc(CCCOC(Cn2ccnc2)c2ccc(OC)cc2)cc1` (centres unmarked), the result_ITMP amounted to 21.7%.

Take `CC(C)N[C@H]1CCn2c(=O)[nH]c3cccc(c32)[C@@H]1O`: the result_ITMP is given as -1.61%.

Take `COc1ccc(-n2nc(C(N)=O)c3c2C(=O)N(c2ccc(N4CCCCC4=O)cc2)CC3)cc1`: the result_ITMP is reported as -4.73%.

For the compound `COc1ccc(C(C)=O)c(O)c1`, the result_ITMP is given as -7.47%.

On to `CC(C)c1nc(CN(C)C(=O)N[C@H](C(=O)N[C@@H](Cc2ccccc2)C[C@H](O)[C@H](Cc2ccccc2)NC(=O)OCc2cncs2)C(C)C)cs1`, for which the result_ITMP was found to be 1.57%.

Take `COc1cc2c(cc1OC)-c1cc3nc4ccccc4nc3n1C(C)(C)C2`: the result_ITMP is on record as -1.86%.

Take `CCC(CC)[C@H](NC(C)=O)[C@@H]1[C@H](O)[C@@H](C(=O)O)C[C@H]1NC(=N)N`: the result_ITMP is reported as -2.33%.

As for `COc1ccccc1OCCNCC(O)COc1cccc2[nH]c3ccccc3c12` (centres unmarked), the result_ITMP came to 43.5%.

Regarding `NC(=O)c1[nH]cnc1O`, the result_ITMP is listed as -0.78%.

In the case of `O=C(O)CNC(=O)C1C(=O)N(C2CCCCC2)C(=O)N(C2CCCCC2)C1=O`, the result_ITMP was 0.57%.

Regarding `Nc1nccc(Oc2ccc(NC(=O)c3cn(COP(=O)(O)O)cc(-c4ccc(F)cc4)c3=O)cc2F)c1Cl`, the result_ITMP is listed as -1.79%.

For the compound `Cc1c(CN(C)C(=O)/C=C/C2=CNC3=NC(=O)CCC3=C2)oc2ccccc12`, the result_ITMP is listed as -2.49%.

Take `CO/N=C(\C(=O)N[C@@H]1C(=O)N2C(C(=O)[O-])=CCS[C@H]12)c1csc(N)n1`: the result_ITMP was -1.89%.

Regarding `O=C(Nc1cccc(Cl)c1)Nc1ncc(CCNc2ncnc3ccsc23)s1`, the result_ITMP is -6.59%.

`COc1ccc2[nH]c(S(=O)Cc3ncc(C)c(OC)c3C)nc2n1` (centres unmarked): the result_ITMP was -3.31%.

Turning to `O=c1[nH]c([C@@H]2CCCN2)nc2c1oc1ccc(Cl)cc12`, the result_ITMP is 0.31%.

In the case of `CN1CCN(c2ccc(C(=O)Nc3n[nH]c4ccc(Cc5cc(F)cc(F)c5)cc34)c(NC3CCOCC3)c2)CC1`, the result_ITMP is reported as 96.5%.

For the compound `Clc1ccc2c(NCCNc3ccnc4cc(Cl)ccc34)ccnc2c1`, the result_ITMP was -2.87%.

Regarding `CCc1c(C(=O)NCCc2ccc(N3CCCCC3)cc2)[nH]c2ccc(Cl)cc12`, the result_ITMP was -1.78%.

For `Oc1ccc(C(O)CNCCCCCCNCC(O)c2ccc(O)c(O)c2)cc1O` (centres unmarked), the result_ITMP is given as 0.03%.

With `C[C@H](CCC(=O)O)[C@H]1CC[C@H]2[C@@H]3CC[C@@H]4C[C@H](O)CC[C@]4(C)[C@H]3C[C@H](O)[C@]12C`, the result_ITMP is reported as 0.11%.

On to `Nc1ncnc2c1ncn2[C@@H]1O[C@H](C[C@@H](N)CC[C@H](N)C(=O)O)[C@@H](O)[C@H]1O`, for which the result_ITMP is -2.59%.

`COc1ccccc1NC(=O)OCC1CCN(C(=O)OC(C)(C)C)CC1`: the result_ITMP is recorded as -3.83%.

Consider `S=P(N1CC1)(N1CC1)N1CC1`, for which the result_ITMP was -8.28%.

Take `COc1cc(N)c(Cl)cc1C(=O)NC1CCN(Cc2ccccc2)CC1`: the result_ITMP is 18.4%.

As to `COc1ccsc1CNCC[C@@]1(c2ccccn2)CCOC2(CCCC2)C1`, the result_ITMP is -2.63%.

Regarding `CC(=O)OCC1=C(C(=O)[O-])N2C(=O)[C@@H](NC(=O)CSc3ccncc3)[C@H]2SC1`, the result_ITMP was -1.36%.

On to `CC12CCC(C(=O)N(CCCCN3CCN(c4ccccn4)CC3)C1=O)C2(C)C` (centres unmarked), for which the result_ITMP is given as -4.12%.

On to `CC(=O)c1ccc2c(c1)[C@@H]1C=CC[C@@H]1[C@H](c1cc3c(cc1Br)OCO3)N2`, for which the result_ITMP was determined as 14.3%.

Turning to `c1cnc(NCc2ccc(CNc3ncccn3)cc2)nc1`, the result_ITMP came out at 0.01%.

Take `CNC(=O)CN1CCC(Oc2cc3c(Nc4cccc(Cl)c4F)ncnc3cc2OC)CC1`: the result_ITMP came out at 27.2%.

Regarding `Cc1cn(C[C@H](N)C(=O)O)c(=O)n(Cc2ccsc2C(=O)O)c1=O`, the result_ITMP is given as -2.31%.

With `CCN(CC)C(=O)N[C@H]1C[C@@H]2c3cccc4[nH]cc(c34)C[C@H]2N(C)C1`, the result_ITMP was determined as 2.65%.

Turning to `CCN1CCCC1CNC(=O)c1cc(S(=O)(=O)CC)c(N)cc1OC` (centres unmarked), the result_ITMP is listed as -1.95%.

`Nc1nc(N)nc(-c2cc(Cl)ccc2Cl)n1`: the result_ITMP is listed as -2%.

`CCCS(=O)(=O)Nc1ccc(F)c(C(=O)c2c[nH]c3ncc(Cl)cc23)c1F`: the result_ITMP is given as 2.11%.

On to `Cc1c(N(C)CS(=O)(=O)[O-])c(=O)n(-c2ccccc2)n1C`, for which the result_ITMP is -4.64%.

Turning to `Cc1ccc(NC(=O)Nc2cc(C(F)(F)F)ccc2F)cc1Nc1ccc2c(c1)NC(=O)/C2=C\c1ccc[nH]1`, the result_ITMP is reported as -8.35%.

As for `CC(C)(NS(=O)(=O)c1ccc(Oc2ccc(F)cc2)cc1)C(=O)NO`, the result_ITMP is -0.94%.

Regarding `CC(CN1c2ccccc2Sc2ccccc21)N(C)C` (centres unmarked), the result_ITMP is given as 55.4%.

`CCOc1cc(N2CCC(O)CC2)ccc1Nc1ncc2c(n1)N(C)c1ccccc1C(=O)N2C`: the result_ITMP was 4.79%.

`O=C(CN1C2=NCCN2c2ccccc21)c1ccc(-c2ccccc2)cc1`: the result_ITMP came out at 53.9%.

On to `S=C=Nc1cccc(NC(=S)NCCCCNC(=S)Nc2cccc(N=C=S)c2)c1`, for which the result_ITMP is listed as -6.72%.

As to `CN(C)[C@@H]1CCc2[nH]c3ccc(NC(=O)c4ccc(F)cc4)cc3c2C1`, the result_ITMP turned out to be 32.9%.

With `COc1cc(C[C@H]2C(=O)OC[C@@H]2Cc2ccc(OC)c(OC)c2)ccc1O`, the result_ITMP is listed as -0.48%.

As for `Cc1c[nH]c(-c2cnc(NCCNc3ccc(C#N)cn3)nc2-c2ccc(Cl)cc2Cl)n1`, the result_ITMP is reported as 13.9%.

As for `C[C@@]12CC[C@@H]3[C@@](CC[C@H]4[C@@]3(C)CCC[C@@]4(C)C(=O)O)(CC1=O)C2`, the result_ITMP is on record as -11%.

As for `NS(=O)(=O)c1cc2c(cc1C(F)(F)F)NC(Cc1ccccc1)NS2(=O)=O` (centres unmarked), the result_ITMP was -8.79%.

Take `C[C@@H]1CN(CC(=O)Nc2ccc3c(c2)Cc2cccc(-c4cc(=O)cc(N5CCOCC5)o4)c2S3)C[C@H](C)O1`: the result_ITMP is reported as 4.24%.

In the case of `CC1(C)S[C@@H]2[C@H](NC(=O)Cc3ccccc3)C(=O)N2[C@H]1C(=O)[O-]`, the result_ITMP is given as -4.24%.

On to `Cc1cc(CCC[C@H](CC(=O)NO)C(=O)N[C@H](C(=O)N[C@H](C)c2ccccc2)C(C)(C)C)ccc1-c1ccccc1`, for which the result_ITMP amounted to 1.87%.

Consider `CC(=O)N1CC[N+](C)(C)CC1`, for which the result_ITMP is reported as 0.9%.

With `CO[C@H]1CC[C@H](N2C(=O)CNc3ncc(-c4ccc(C(C)(C)O)nc4)nc32)CC1`, the result_ITMP is recorded as -1.12%.

`CCc1c(-c2ccccc2)c(-c2ccccc2)nn1-c1ccccc1-c1cccc(OCC(=O)O)c1`: the result_ITMP was -1.25%.

Regarding `CC(C)[C@H](CO)Nc1nc(Nc2cc(N)cc(Cl)c2)c2ncn(C(C)C)c2n1`, the result_ITMP came to 7.75%.

`COc1cc2c(c(OC)c1OC)-c1ccc(OC)c(=O)cc1[C@@H](NC(C)=O)CC2`: the result_ITMP is 6.86%.

As for `O=C(c1ccc(OCCN2CCCCC2)cc1)c1c(-c2ccc(O)cc2)sc2cc(O)ccc12`, the result_ITMP is recorded as 74.6%.
